Data from PMC12095047, “Transport of phenoxyacetic acid herbicides by PIN-FORMED auxin transporters” (Nature Plants, 2025).
“And” between values parts separate entries of the source, which are not always exact repeats. Equal entries are not always repeated. Where two headings read alike, the source gives them in different places. Further values from the same series stand in other lists.

How the values were obtained:
Type in all cases: biochemical
PIN8 I51Y = biological target: T1, PIN8 I51Y (Arabidopsis thaliana, UniProt Q9LFP6, I51Y); details: individual sensors
T1 construct: made in house
T1 sequence (Q9LFP6 whole entry I51Y): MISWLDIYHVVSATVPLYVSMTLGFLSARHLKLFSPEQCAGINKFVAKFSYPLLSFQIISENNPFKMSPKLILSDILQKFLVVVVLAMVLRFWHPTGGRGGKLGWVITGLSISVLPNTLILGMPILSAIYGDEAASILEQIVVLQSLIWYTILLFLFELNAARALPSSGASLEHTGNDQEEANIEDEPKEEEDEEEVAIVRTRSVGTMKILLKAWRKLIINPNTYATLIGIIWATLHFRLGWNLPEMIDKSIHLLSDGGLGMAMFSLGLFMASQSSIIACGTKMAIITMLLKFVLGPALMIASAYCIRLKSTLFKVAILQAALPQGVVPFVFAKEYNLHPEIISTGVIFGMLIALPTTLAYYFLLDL
Procedure: (§1) SSM, using a SURFE2R N1 from Nanion Technologies, was conducted as described. In brief, soy polar lipid mix (38% phosphatidyl choline, 30% phosphatidyl ethanolamine, 18% phosphatidyl inositol, 7% phosphatidic acid and 7% other soy lipids) and 1-palmitoyl-2-oleoyl-sn-glycero-3-phosphocholin were purchased from Avanti. Liposomes were prepared in Ringer solution without Ca^2+ (115 mM NaCl, 2.5 mM KCl, 1 mM NaHCO3, 10 mM HEPES pH7.4, 1 mM MgCl2) and homogenized using a Lipsofast (Avestin) with a […]. Triton X-100 was added to the liposomes to a final concentration of 1% (v/v). Protein was added to liposomes to a calculated lipid-to-protein ratio (LPR) of 10 unless stated otherwise. The detergent was removed using 400 mg ml^−1 Bio Beads (BioRad) overnight at 4 °C in a rotary shaker. Proteoliposomes were frozen in liquid nitrogen and kept at −80 °C until use. Proteoliposomes were diluted 1:5 in Ringer solution without Ca^2+, sonicated five times and then applied to the sensors by centrifugation (30 min, 3,000 g, 4 °C). Non-activating buffer was Ringer solution without Ca^2+ as described unless specified otherwise, and activating buffer contained the substrate of interest. In most instances we used a single-solution exchange experiment. In this case proteoliposomes, immobilized on the supported membrane, are kept in non-activating buffer as specified. At the beginning of the experiment the non-activating buffer is replaced with fresh identical non-activating buffer, and after 1 s, activating buffer (same buffer containing substrate) is added. After another second, the buffer is replaced with non-activating buffer again. Current response is recorded throughout the entire 3 s. For competition or inhibition, the respective compound was present in non-activating and activating solutions. Each experiment was performed on at least two individual sensors. On each sensor each measurement consists of three technical replicates where the mean is calculated. KD values were determined as described previously. Briefly, the binding current induced by 100 µM NPA was recorded in the presence of different concentrations of the substrate under investigation ranging between 0 µM and 1,000 µM present in the activating solution and the non-activating solution (Extended Data Fig. 5b). […] The maximum peak current was then plotted as a function of the concentration of the substrate under investigation and plotted against the degree of inhibition and fitted with a one-site binding model using GraphPad Prism V10.4.1 The half maximal concentration corresponds to the KD of the substrate under investigation.
(§2) The protocol for expression and purification of AtPIN8 protein (Uniprot: Q9LFP6) in lauryl maltose neopentyl glycol was described previously. All point mutants were generated using Q5 Site-Directed mutagenesis kit (New England Biolabs). The C-flat Holey Carbon grids (CF-1.2/1.3, Cu-300 mesh) were glow-discharged for 45 s at 15 mA in a GloQube Plus (Quorum). […] After 1 h of incubation on ice, the sample was centrifuged at 16,000 g for 15 min before blotting to remove precipitation. A drop of 4 µl of each sample was applied to the glow-discharged grids, blotted with a Vitrobot Mark IV (ThermoFisher Scientific) using the following settings (temperature 4 °C, 100% humidity, blot time of 4 s, blot force −1) and vitrified in liquid ethane.

PIN8 N223A = biological target: T2, PIN8 N223A (Arabidopsis thaliana, UniProt Q9LFP6, N223A); details: individual sensors
T2 construct: made in house
T2 sequence (Q9LFP6 whole entry N223A): as the sequence (Q9LFP6 whole entry I51Y) above, with Y51I, N223A counted along it
Procedure: as §1, §2

PIN8 S266A = biological target: T3, PIN8 S266A (Arabidopsis thaliana, UniProt Q9LFP6, S266A); details: individual sensors
T3 construct: made in house
T3 sequence (Q9LFP6 whole entry S266A): as the sequence (Q9LFP6 whole entry I51Y) above, with Y51I, S266A counted along it
Procedure: as §1, §2

PIN8 S55A/S146A = biological target: T4, PIN8 S55A/S146A (Arabidopsis thaliana, UniProt Q9LFP6, S146A/S55A); details: individual sensors
T4 construct: made in house
T4 sequence (Q9LFP6 whole entry S55A/S146A): as the sequence (Q9LFP6 whole entry I51Y) above, with Y51I, S55A, S146A counted along it
Procedure: as §1, §2

PIN8 Y150F = biological target: T5, PIN8 Y150F (Arabidopsis thaliana, UniProt Q9LFP6, Y150F); details: individual sensors
T5 construct: made in house
T5 sequence (Q9LFP6 whole entry Y150F): as the sequence (Q9LFP6 whole entry I51Y) above, with Y51I, Y150F counted along it
Procedure: as §1, §2

A. thaliana PIN8 = biological target: T6, A. thaliana PIN8 (Arabidopsis thaliana, UniProt Q9LFP6); test: SSM electrophysiology, peak current response on PIN8 proteoliposomes; details: 2 mM 4-CPA, individual sensors
T6 construct: made in house
T6 sequence (Q9LFP6 1-367): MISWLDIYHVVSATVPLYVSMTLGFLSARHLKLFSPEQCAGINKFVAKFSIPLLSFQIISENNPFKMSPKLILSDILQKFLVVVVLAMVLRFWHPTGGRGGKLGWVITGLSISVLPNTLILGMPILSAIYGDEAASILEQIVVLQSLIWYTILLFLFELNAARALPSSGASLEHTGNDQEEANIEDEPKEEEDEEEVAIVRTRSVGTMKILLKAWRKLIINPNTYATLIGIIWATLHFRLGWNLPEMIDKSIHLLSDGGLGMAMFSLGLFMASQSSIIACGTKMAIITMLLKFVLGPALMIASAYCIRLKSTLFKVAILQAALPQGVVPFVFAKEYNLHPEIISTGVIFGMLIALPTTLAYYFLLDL
Procedure: as §1

| Structure (SMILES) | Peak current (PIN8 I51Y; 5 µM substrate) | Peak current (PIN8 I51Y; 20 µM substrate) | Peak current (PIN8 I51Y; 50 µM substrate) | Peak current (PIN8 I51Y; 100 µM substrate) | Peak current (PIN8 I51Y; 500 µM substrate) | Peak current (PIN8 I51Y; 1000 µM substrate) | Peak current (PIN8 I51Y; 2000 µM substrate) | Peak current (PIN8 N223A; 5 µM substrate) | Peak current (PIN8 N223A; 20 µM substrate) | Peak current (PIN8 N223A; 50 µM substrate) | Peak current (PIN8 N223A; 100 µM substrate) | Peak current (PIN8 N223A; 500 µM substrate) | Peak current (PIN8 N223A; 1000 µM substrate) | Peak current (PIN8 N223A; 2000 µM substrate) | Peak current (PIN8 S266A; 100 µM substrate) | Peak current (PIN8 S266A; 500 µM substrate) | Peak current (PIN8 S266A; 1000 µM substrate) | Peak current (PIN8 S266A; 2000 µM substrate) | Peak current (PIN8 S55A/S146A; 5 µM substrate) | Peak current (PIN8 S55A/S146A; 20 µM substrate) | also measured |
| --- | --- | --- | --- | --- | --- | --- | --- | --- | --- | --- | --- | --- | --- | --- | --- | --- | --- | --- | --- | --- | --- |
| O=C(O)Cc1c[nH]c2ccccc12 [IAA, indole-3-acetic acid] | 0.3159 nA and 0.4078 nA and 0.2616 nA | 0.3089 nA and 0.3835 nA and 0.2875 nA | 0.3227 nA and 0.3793 nA and 0.3407 nA | 0.01816 nA and 0.04709 nA and 0.3071 nA | 1.099 nA and 1.182 nA and 0.8863 nA | 1.929 nA and 1.7753 nA and 1.506 nA | 1.453 nA and 1.778 nA and 1.856 nA | 0.02147 nA and 0.007803 nA and 0.01536 nA | 0.03442 nA and 0.01942 nA and 0.00897 nA | 0.02378 nA and 0.07636 nA and 0.01338 nA | 0.2872 nA and 0.6837 nA and 0.6146 nA | 0.8542 nA and 1.436 nA and 1.155 nA | 0.9951 nA and 1.777 nA and 1.459 nA | 0.9574 nA and 2.034 nA and 2.099 nA | 0.2889 nA and 0.9012 nA and 0.2145 nA | 1.327 nA and 2.405 nA and 1.351 nA | 2.605 nA and 3.622 nA and 2.452 nA | 2.606 nA and 3.8722 nA and 2.498 nA | 0.465 nA and 0.5002 nA and 0.5662 nA | 0.6855 nA and 0.6271 nA and 1.152 nA | Peak current (PIN8 S55A/S146A; 50 µM substrate): 1.161 nA and 0.8783 nA and 1.9946 nA; Peak current (PIN8 S55A/S146A; 100 µM substrate): 1.362 nA and 0.8101 nA and 2.6104 nA; Peak current (PIN8 S55A/S146A; 500 µM substrate): 3.393 nA and 2.269 nA and 5.611 nA; Peak current (PIN8 S55A/S146A; 1000 µM substrate): 5.076 nA and 3.798 nA and 7.432 nA; Peak current (PIN8 S55A/S146A; 2000 µM substrate): 5.468 nA and 4.104 nA and 7.879 nA; Peak current (PIN8 Y150F; 5 µM substrate): 0.04349 nA and 0.08816 nA; Peak current (PIN8 Y150F; 20 µM substrate): 0.3008 nA and 0.1166 nA; Peak current (PIN8 Y150F; 50 µM substrate): 0.7156 nA and 0.3431 nA; Peak current (PIN8 Y150F; 100 µM substrate): 1.333 nA and 0.7031 nA; Peak current (PIN8 Y150F; 500 µM substrate): 3.882 nA and 2.2923 nA; Peak current (PIN8 Y150F; 1000 µM substrate): 5.306 nA and 3.231 nA; Peak current (PIN8 Y150F; 2000 µM substrate): 6.136 nA and 3.331 nA |
| O=C(O)COc1ccc(Cl)cc1 [4-CPA, 4-chlorophenoxyacetic acid] | 0.104 nA and 0.148 nA and 0.123 nA | 0.091 nA and 0.096 nA and 0.095 nA | 0.355 nA and 0.405 nA and 0.364 nA | 0.372 nA and 0.42 nA and 0.352 nA | 1.098 nA and 1.106 nA and 0.904 nA | 1.456 nA and 1.385 nA and 1.078 nA | 2.355 nA and 2.296 nA and 1.757 nA | 0.008528 nA and 0.01312 nA and 0.006345 nA | 0.007003 nA and 0.02508 nA and 0.01069 nA | 0.006032 nA and 0.01061 nA and 0.01155 nA | 0.005994 nA and 0.02204 nA and 0.01745 nA | 0.6582 nA and 0.7134 nA and 0.5332 nA | 1.248 nA and 1.323 nA and 1.1 nA | 2.167 nA and 2.239 nA and 2.0202 nA | 0.1687 nA and 0.4309 nA and 0.2888 nA | 1.3803 nA and 2.021 nA and 0.7864 nA | 2.1491 nA and 3.295 nA and 1.502 nA | 3.257 nA and 4.824 nA and 2.236 nA | 0.7856 nA and 0.8117 nA and 0.7294 nA | 2.368 nA and 2.72 nA and 2.487 nA | Peak current (A. thaliana PIN8; absence of NPA): 9.1334 nA; Peak current (A. thaliana PIN8; presence of 20 µM NPA): 3.899 nA and 2.079 nA; Peak current (PIN8 S266A; 5 µM substrate): 0.02065 nA and 0.01524 nA and 0.01916 nA; Peak current (PIN8 S266A; 20 µM substrate): 0.02584 nA and 0.00943 nA and 0.01896 nA; Peak current (PIN8 S266A; 50 µM substrate): 0.03178 nA and 0.1167 nA and 0.03945 nA; Peak current (PIN8 S55A/S146A; 50 µM substrate): 3.925 nA and 4.585 nA and 4.086 nA; Peak current (PIN8 S55A/S146A; 100 µM substrate): 5.1433 nA and 6.022 nA and 5.257 nA; Peak current (PIN8 S55A/S146A; 500 µM substrate): 7.88 nA and 9.495 nA and 8.2346 nA; Peak current (PIN8 S55A/S146A; 1000 µM substrate): 8.927 nA and 10.5916 nA and 9.419 nA; Peak current (PIN8 S55A/S146A; 2000 µM substrate): 9.8278 nA and 11.4999 nA and 10.4608 nA; Peak current (PIN8 Y150F; 5 µM substrate): 0.1124 nA and 0.2742 nA and 0.2438 nA and 0.4634 nA; Peak current (PIN8 Y150F; 20 µM substrate): 0.214 nA and 0.2611 nA and 0.2146 nA and 4.15e-5 nA; Peak current (PIN8 Y150F; 50 µM substrate): 0.6792 nA and 0.8269 nA and 0.6826 nA and 1.119 nA; Peak current (PIN8 Y150F; 100 µM substrate): 0.933 nA and 0.9667 nA and 0.781 nA and 0.8667 nA; Peak current (PIN8 Y150F; 500 µM substrate): 2.503 nA and 2.048 nA and 1.77 nA and 1.668 nA; Peak current (PIN8 Y150F; 1000 µM substrate): 3.482 nA and 2.773 nA and 2.407 nA and 2.3466 nA; Peak current (PIN8 Y150F; 2000 µM substrate): 4.702 nA and 3.788 nA and 3.486 nA and 3.842 nA |
